Source: the RNAGym collection of RNA variant scans (doi:10.7554/elife.90254)
Read counts are not given, so values of variants with three or more changes are uncertain.

B1: LINE1-mini (parent)
chain: GGCAGAGCUCAACACAGCGUGGCAAAGUGGCUGUGGCUAGACUGCC

Variants of: B1
Assay: self-cleavage, relative activity (ratio to wild type); higher = more cleavage; in vitro, sequencing; the parent is a self-cleaving ribozyme

Variant | self-cleavage
C3G A14U G19U | 0.66
C3G C8U U9G U28C G33U | 0.07
C3G A11U C18U G35U | 0.04
C3G A16U C18U | 0.07
C3G A4U A14U C23U G29U C31G G40C | 0.03
C3A U32A G36U | 0.28
C3G C13A U20A C37G | 0.06
C3G C10U G17A A25C G29A | 0.06
C3G A4C C18A G30C G40C G44A | 0.18
C3G C10A U20A C46G | 0.03
C3A G30A G33C C37A | 0.08
C3G C10U C13G | 0.06
C3G A14U C15G U28G G35U C42U | 0
C3G A4C A6U C42A | 0.06
C3G A16G U38A | 0.07
C3A U9A C18A G22U C23G C42U | 0.22
C3A U20G G36U A39G | 0.12
C3G C10A G36A | 0.04
C3A G33C U43C | 0.07
C3A G29C C46A | 0.18
C3G A6C A25U G29U C46G | 0.29
C3A U9G A12U A24G G29C G36A C37A | 0.05
C3A U9G A12G C23A | 0.08
C3G A14U U34A A39C | 0.03

Variant | self-cleavage
C3G A6U C18U A24U G27C C42U G44A | 0.16
C3A G29C U38C | 0.11
C3A U9A G22U A24C C46A | 0.35
C3G C10A A12C C18U C42G | 0.01
C3A U9G C18U C23U U28C | 0.14
C3G C18U U20C U28C G35U G36U C45U | 0.01
C3G C23A G36C G40A | 0.41
C3A G27U C45A | 0.36
C3G A6G C13U | 0.62
C3G A6G U38G | 0.02
C3G A6C G7A A11G | 0.05
C3A U20A C37A | 0.21
C3G A4C G7C C13U G44U | 0.13
C3G A6G G22C G33U G44C | 0.02
C3G A6C G19U G35U | 0.05
C3A U9A G21A | 1.43
C3G C10A G33C | 0.01
C3A G27U G35A U38C | 0.08
C3G C10U G19A G36A | 0.1
C3A U9C A26C C37A | 0.05
C3G C18U C31A | 0.16
C3G A16C U28A G33A U34G U38G | 0.05
C3G C13G A25C A26G G27U C45A | 0.14
C3G A12U C13U U28C | 0.12

Variant | self-cleavage
C3G A4C G5C A12G | 0.09
C3G C10A A11U C15A G22A A26G G29U C31U | 0.02
C3A U20G G21A U43G | 0.05
C3G A16G G19A U28C | 0.21
C3A U9C A11U U43C | 0.03
C3A U32G A39C | 0.05
C3G A12C U38C | 0.02
C3G A4U C13G A16U C37U | 0.07
C3G C8U G19C U20C G21A U28C G33A | 0.02
C3G A12C A39C G44A | 0.01
C3G C10A A12U C15A G40A | 0.03
C3G C8A C15A C18U A24U | 0.71
C3G A4C C15U U20A A41C | 0.14
C3A U9A C23A G29A C45G | 0.13
C3G C15U C31A | 0.19
C3G A16C C18G G19A G21U A25C G27U G40C C45A | 0.01
C3G C15G C18U U32C | 0.01
C3G C13A G35A | 0.07
C3G C15A G30A | 0.15
C3G A6U U32G | 0.07
C3G A12U A16G G22U U28C | 0.12
C3G A4G C8U G29U A41U | 0.65
C3G A16G C42A | 0.26
C3G A12C G27C | 0.01

Variant | self-cleavage
C3G C8G A12U A14U U20G U32C | 0.06
C3G C10G G40A C42A | 0.01
C3G A6G C10U | 0.03
C3G C8G C23G G30U G35U G40C | 0.18
C3G C13U C42U | 0.45
C3A U9A U28C G33C G40C | 0.29
C3A U9G A11C A25C C37U U38G | 0.02
C3G C10U A25G G33C C45A | 0.03
C3G A16C A24U A41G | 0.06
C3G A11G C45G | 0.01
C3A G22U G35A | 0.17
C3G C13A C23A C46U | 0.11
C3G A12C G17U U20A G22A G36U C42U | 0.01
C3G C10G G17U G44A C45A | 0.04
C3A U20A G27C | 0.25
C3G A25U C46U | 0.11
C3A U9A A11C A26U G27C | 0.02
C3G A6C A16C G36U | 0.09
C3G A12U C15A A26G | 0.16
C3G C8U G17C C42G | 0.06
C3G A26U G27U U38G G40C | 0.06
C3A U9G C10U G19A U34G | 0.08
C3G A11U U32A | 0.03
C3G C13U A26U C37U A39G | 0.04

Variant | self-cleavage
C3G A6U G19A U38C C45G | 0.26
C3G A14C G21C G27C G35U U38C C45A | 0.01
C3G C8U C10G C15A G27A C46G | 0.07
C3A G40A C42U | 0.08
C3G C8G U38C | 0.31
C3G A6U C15A A25G G27C U28C | 0.06
C3G A12U U20A | 0.1
C3G A25G G35C | 0.12
C3A G30C G36A | 0.18
C3G A16G G27U | 0.11
C3G A6C A14C C15A G19C G22A C23A C37G G40A | 0
C3G A25G U34G | 0.13
C3G C10A G29U C46A | 0.02
C3G A6U A24C | 0.15
C3G C18A G21U U28G | 0.15
C3G A12C C13U G27A U34G C37G G44U | 0.02
C3A U9C A11U C45A | 0.01
C3G C10A A11U A25C C31A | 0.01
C3A G36A G44U | 0.12
C3G C15G U20A | 0.03
C3G C8U G19U U28A U34A U43A | 0.07
C3G C15U G27C U34G G35A | 0.03
C3G C10U G29A | 0.11
C3A U9G G21A A25U G33A G35C G44A C46G | 0.11

Variant | self-cleavage
C3A U32G C46G | 0.44
C3G A4U G21U G33C G36U G40C | 0.05
C3G A12G C13G A41G | 0.06
C3A G40C U43C C46A | 0.08
C3G C15A U20G | 0.03
C3G C8A C31G G33A | 0.13
C3G A16G U32A | 0.04
C3G C18A G30A G36U | 0.53
C3G A4U G5C A11C C13A G19C G27A G29A C46U | 0.03
C3G A16G G30C | 0.06
C3A G44U C46A | 0.28
C3G A4C C8U U20C G27U G33U C46A | 0.14
C3G A24U G29U C42G | 0.43
C3G A14U G33A A39G | 0.41
C3A G35U G40U | 0.14
C3A G35U G40A | 0.21
C3A U32C G33A | 0.04
C3A G35C G36A C37G | 0.31
C3G C10A C31G G40A | 0.01
C3G C18U G35U | 0.19
C3G A4U C13A U20G A25G G33A | 0.08
C3G A4G G35A | 0.04
C3G C23A U38G C42U | 0.02
C3G A12G G35C | 0.09

Variant | self-cleavage
C3G A6U U9G C18A | 0.4
C3G A11C C46A | 0
C3A G33A U38A | 0.14
C3G A24C C42U | 0.15
C3G C18U C23G | 0.54
C3G C13U A26U C37A | 1.8
C3A G36A G40C | 0.78
C3G A4G A6C G21U C23U | 0.14
C3A U20A A39C C46U | 0.01
C3G C8A A24C G30A | 0.6
C3G A24G G40U | 0.04
C3G A16G U28C G35C C45A C46G | 0.01
C3G C13A U20C G21C G29A | 0.17
C3G C8A C10A G17C | 0.02
C3A U9C G22C C42A | 0.01
C3G C15A G17C | 0.81
C3G C8A U9C G21C G33U | 0.05
C3A U20G C46U | 0.15
C3G C13U G44C | 0.03
C3G A12G G27A G29U | 0.06
C3G C13U A16G G21U G36U | 0.07
C3G A11C G44U | 0.04
C3G C10A A11C | 0.01
